Whole data set: some 110,000 compounds, median “z-score” near -0.1, cut for the highest 2% near 2. This is one part of the list. Calls of active or inactive are those of the source.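 The calls were made as follows: active = z-score in the third read window above 3 or below -3; inactive = the rest.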

Results on 111 compounds are retold here after PubChem BioAssay AID488969 (Vanderbilt High Throughput Screening Facility, 2010).

The experiment addresses Metabotropic glutamate receptor 8 (Rattus norvegicus) (UniProt P70579). Briefly: rat mGluR8 modulators via GIRK flux, primary screen, cell-based, thallium flux, HTS (AID 488969). The settings on record: HEK293 rat mGluR8, GIRK (G protein-gated inwardly rectifying potassium channel) thallium flux, FluoZin2; at 10 µM; stronger effect = higher value; submaximal glutamate (EC20) added with thallium.
UniProt P70579, sequence (P70579 whole entry, looked up): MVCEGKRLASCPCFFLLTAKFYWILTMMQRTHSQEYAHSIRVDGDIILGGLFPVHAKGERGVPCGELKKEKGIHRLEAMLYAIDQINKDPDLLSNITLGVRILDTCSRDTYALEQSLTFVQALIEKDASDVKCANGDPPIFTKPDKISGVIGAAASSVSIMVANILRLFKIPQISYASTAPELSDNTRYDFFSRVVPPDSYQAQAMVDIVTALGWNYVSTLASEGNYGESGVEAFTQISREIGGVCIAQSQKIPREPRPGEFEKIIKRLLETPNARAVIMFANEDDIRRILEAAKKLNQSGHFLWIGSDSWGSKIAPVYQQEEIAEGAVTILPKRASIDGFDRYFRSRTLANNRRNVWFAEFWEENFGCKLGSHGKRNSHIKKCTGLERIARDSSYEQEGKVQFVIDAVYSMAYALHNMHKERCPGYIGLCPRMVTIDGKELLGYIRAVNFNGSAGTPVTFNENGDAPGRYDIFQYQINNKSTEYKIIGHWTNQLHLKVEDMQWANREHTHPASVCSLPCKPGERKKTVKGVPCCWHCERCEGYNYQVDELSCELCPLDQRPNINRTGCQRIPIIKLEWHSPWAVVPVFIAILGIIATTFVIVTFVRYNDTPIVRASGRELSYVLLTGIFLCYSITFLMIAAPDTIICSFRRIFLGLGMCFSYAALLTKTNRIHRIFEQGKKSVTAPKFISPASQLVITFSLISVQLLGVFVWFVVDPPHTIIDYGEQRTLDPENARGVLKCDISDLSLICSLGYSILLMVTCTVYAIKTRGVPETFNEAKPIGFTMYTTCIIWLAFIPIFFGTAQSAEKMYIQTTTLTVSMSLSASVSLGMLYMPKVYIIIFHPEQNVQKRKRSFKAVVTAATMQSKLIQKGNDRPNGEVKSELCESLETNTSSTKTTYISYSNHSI
As to `CCCc1cc(Nc2cccc(OCC)c2)n2ncnc2n1`, the z-score is -1.68.

With `O=C(Nc1ccon1)c1csc2ccccc12`, the z-score stood at 0.337.

`CCN(CC)c1nc(Nc2ccccc2)nc(Oc2ccc(C(=O)OC)cc2)n1` came in with a z-score of -0.0347.

In turn, `Cc1ccc(-n2c(Cn3nc(C(F)F)cc3C(F)F)n[nH]c2=S)cc1` returned a z-score of -0.51.

`Fc1ccccc1-n1[nH]nnc1=S` registered a z-score of 0.115.

`COc1cccc(-c2nc(CS(=O)CC(=O)NCCCOC(C)C)c(C)o2)c1` (stereo unspecified) registered a z-score of 0.567.

As to `COc1ccc([N+](=O)[O-])cc1NC(=O)CSc1nc(C)cc(C)n1`, the z-score is -0.947.

With `CC(/C=N/NC(=O)Cc1cccs1)=C\c1ccco1`, the z-score is -0.15.

`COc1ccc(-n2nnnc2SCC(=O)N2CCCc3ccccc32)cc1OC`: the z-score was -0.51.

With `CC(NC(=O)CN1CCc2ccccc21)c1ccccc1` (stereo unspecified), the z-score was -0.323.

`CCC(Oc1ccccc1)C(=O)N1CCN(CC)CC1` (stereo unspecified) gave a z-score of -0.239.

Regarding `Cc1cc2cc(C)c3nnc(SCC(=O)N4CCc5ccccc54)n3c2cc1C`, the z-score is -0.31.

Take `CC(=O)N(c1cccc(C)c1)C1SC(=O)N(c2ccccc2)C1=O` (stereo unspecified): the z-score was determined as 0.416.

The compound `Cc1cc(NS(=O)(=O)c2ccc(NC(=O)CCCOc3ccc(Cl)cc3)cc2)no1` gave a z-score of -0.247.

In the case of `Cc1ccc(-c2noc(CN3CCN(C(c4ccccc4)c4ccccc4)CC3)n2)cc1`, the z-score came out at 0.316.

`Cc1ccc(-n2c(C)cc(/C([O-])=C(/C(=S)Nc3ccc(F)c(Cl)c3)[n+]3ccccc3)c2C)cc1` showed a z-score of -0.212.

As for `COC(=O)C1=C(C(C)=O)C(c2ccc(C(=O)OC)cc2)n2nnnc2N1` (stereo unspecified), the z-score was -1.83.

Take `CCOC(=O)Cn1c(=O)oc2cc(S(=O)(=O)Nc3c(C)cc(C)cc3C)ccc21`: the z-score is -0.223.

Regarding `O=C(COC(=O)COc1ccc2ccccc2c1)NC1CCCc2ccccc21` (stereo unspecified), the z-score is -0.394.

Consider `COc1cccc(C2C(C(C)=O)=C(O)C(=O)N2Cc2ccco2)c1` (stereo unspecified), for which the z-score is -1.61.

The compound `CC(=O)/C(=N\Nc1ccc(Cl)cc1Cl)Sc1cccc2cccnc12` had a z-score of 2.29.

The compound `COc1ccc(Cl)cc1N1CC(C(=O)Nc2nccs2)CC1=O` (stereo unspecified) displayed a z-score of 0.39.

In the case of `CCN(C(=O)c1cccnc1)c1ccccc1`, the z-score is 0.884.

`CC(C)(C)C(=O)CCN1C(=O)C2(OCCO2)c2ccccc21` displayed a z-score of -0.199.

Turning to `CC(/C=C1\N=C(SCc2ccccc2Cl)SC1=O)=C\c1ccccc1`, the z-score was -0.198.

`COc1ccc(NC(=S)Nc2cccc(S(=O)(=O)N3CCCCC3)c2)cc1` returned a z-score of 0.241.

Turning to `CNC(=O)c1sc(N2N=C3/C(=C/c4ccccc4)CCCC3C2c2ccccc2)nc1C` (stereo unspecified), the z-score was -0.962.

In turn, `O=c1cc(O)nc(SCc2ccccc2)[nH]1` showed a z-score of -0.338.

In the case of `Cc1ccc(NC(=O)COC(=O)c2cc(Cl)ccc2Cl)c(Br)c1`, the z-score was -0.302.

Take `O=C(NCCc1ccccc1)C1CCCN(S(=O)(=O)c2cccc3nsnc23)C1` (stereo unspecified): the z-score is -0.252.

`Cc1ccc(Sc2nc3c(c(=O)[nH]c(=O)n3C)n2CCc2ccccc2)cc1` displayed a z-score of -0.371.

Compound `CC(/C=N/n1c(COc2ccccc2)n[nH]c1=S)=C\c1ccccc1` returned a z-score of 1.93.

The compound `O=S(=O)(c1ccc(Cl)cc1)N1CCN(C(=S)Nc2ccc(F)c(Cl)c2)CC1` showed a z-score of 0.862.

For `CC1(C)Cc2ccccc2C(=O)N1`, the z-score was found to be 0.0959.

`COc1ccc(NC(=O)CSC2=C(C#N)C(c3ccco3)C3=C(CCCC3=O)N2)c(OC)c1` (stereo unspecified) gave a z-score of -1.4.

`O=C(Nc1cccc(C(F)(F)F)c1)c1ccc(Cn2cc(Br)cn2)o1` returned a z-score of -0.835.

Turning to `CN1CC(=O)N(CC(=O)NCCc2ccc(F)cc2)c2ccccc2C1=O`, the z-score was -0.0409.

On to `COc1ccccc1NC(=O)c1ccc(NS(=O)(=O)c2ccc(F)c(F)c2F)cc1`, for which the z-score is -0.258.

`Fc1ccc(C2=Nn3c(Cc4ccccc4)nnc3SC2)cc1` returned a z-score of -0.438.

In turn, `Cc1ccc2nc(N3CCN(c4cccc(C)c4C)CC3)c3nnnn3c2c1` displayed a z-score of -0.0475.

As to `N#Cc1c(N)oc(-c2ccc3c(c2)OCO3)c1-c1ccc2c(c1)OCO2`, the z-score is -0.0135.

Regarding `CCCn1c2ccccc2c2cc(C(=O)O)ccc21`, the z-score is 0.126.

In turn, `CCn1c(SCC(=O)N/N=C/C(C)=C\c2ccco2)nnc1-c1ccccc1` had a z-score of 0.0929.

The compound `O=C(CC1(O)C(=O)Nc2ccccc21)c1cccnc1` (stereo unspecified) gave a z-score of -0.0715.

The compound `O=c1c2ccccc2c(-c2ccccc2)nn1Cc1ccc(Cl)cc1` had a z-score of -0.152.

For the compound `COc1ccc(C(CC(=O)O)NC(=O)COc2ccccc2)cc1` (stereo unspecified), the z-score was 0.766.

As for `COc1ccc(Cc2nnc(N/N=C/c3ccc(O)cc3O)[nH]c2=O)cc1OC`, the z-score is -0.455.

`CC(C)c1ccc(NC(=S)NN2CCOCC2)cc1` returned a z-score of -0.0759.

`Cc1ccc(C)c(C(=O)COC(=O)c2ccc(Br)o2)c1` had a z-score of -0.691.

As to `COCCn1c(C)cc(C(=O)COC(=O)CCN2C(=O)c3ccccc3C2=O)c1C`, the z-score is -0.155.

`Cc1nn(Cc2ccc(F)cc2)c(C)c1NC(=O)c1cnn2c1NC(c1cccs1)CC2C(F)(F)F` (stereo unspecified) displayed a z-score of -0.699.

In turn, `CC(=O)C1=C(O)C(=O)N(c2ccc(S(N)(=O)=O)cc2)C1c1ccccc1F` (stereo unspecified) gave a z-score of 0.472.

`COc1ccc2nc(N3C(=O)CC(C(C)c4ccccc4)C3=O)sc2c1` (stereo unspecified) showed a z-score of -0.143.

On to `COC(=O)c1sccc1NC(=O)CSc1ccccc1NS(=O)(=O)c1cc(Cl)ccc1Cl`, for which the z-score is active: 8.63.

Regarding `COC(=O)c1cc(NC(=O)CC2C(=O)NCCN2C(=O)c2ccc(F)cc2)cc(C(=O)OC)c1` (stereo unspecified), the z-score is -0.116.

The compound `Cc1ccc(NS(=O)(=O)c2ccc(CCC(=O)NC3CC3)cc2)cc1` returned a z-score of -0.364.

In turn, `CCN(CC)CCNC(=O)c1ccc2c(=O)n(C3CCCC3)c(=S)[nH]c2c1` gave a z-score of 0.125.

As for `COc1cc(NC(=O)Cn2c(C)cc3ccccc3c2=O)cc(OC)c1OC`, the z-score was found to be 0.368.

For `CCCCCC(=O)N1CCN(CCN=CC2=C(O)CC(c3ccc(OC)c(OC)c3)CC2=O)CC1` (stereo unspecified), the z-score amounted to 0.026.

`COC(=O)C1=C(C)N(C)C(C)=C(C(=O)OC)C1c1ccc(F)c(Br)c1` yielded a z-score of -0.957.

As for `O=C(NCc1ccncc1)C1CCCCC1`, the z-score stood at 0.039.

In turn, `COC(=O)c1ccccc1NC(=O)N1c2ccccc2Sc2ccccc21` yielded a z-score of 0.97.

Compound `Cc1ccc2c(CSc3nncs3)cc(=O)oc2c1` showed a z-score of -0.00941.

The compound `Cc1nc(N2CCOCC2)c(C#N)c2c1COC(C)(C)C2` gave a z-score of -0.387.

The compound `CC(C)Cc1nc(N2CCN(C(=O)c3ccccc3)CC2)c(C#N)c2c1CCC2` displayed a z-score of 0.457.

For `O=C1NCC(O)=C1C=NC12CC3CC(CC(C3)C1)C2`, the z-score was determined as 0.378.

The compound `CCN(CC)c1ccc(/C=C(\C#N)C(=O)NCc2ccccc2)cc1` had a z-score of -0.155.

The compound `COC(=O)c1ccccc1NC1CC(=O)N(c2c(C)cccc2C)C1=O` (stereo unspecified) had a z-score of -0.474.

Compound `CC1CCc2sc3c(c2C1)c1ncnn1c(=O)n3CC(=O)c1ccc(Br)cc1` (stereo unspecified) came in with a z-score of -0.357.

The compound `Cc1cccc(N2CCN(C(=O)c3cc4ccccc4oc3=O)CC2)c1C` gave a z-score of -0.171.

The compound `CC1CCCN(S(=O)(=O)c2cc(Cl)ccc2Cl)C1` (stereo unspecified) gave a z-score of 0.0758.

Regarding `Cc1c(CN(C)C)c2c(n1Cc1ccccc1)C(=O)c1ccccc1-2`, the z-score was 1.29.

On to `O=C(NNC1=Nc2cccc3cccc1c23)c1ccccc1Br`, for which the z-score was -0.176.

In turn, `COc1cc(C(=O)NNC(=O)c2ccc(S(=O)(=O)N3CCCCC3)cc2)cc(OC)c1OC` returned a z-score of -0.0227.

`CC(=O)Nc1ccc(S(=O)(=O)Nc2ccc(S(=O)(=O)N3CCCC3)cc2)cc1`: the z-score is 0.105.

With `O=C(c1ncn[nH]1)N1CCN(c2nc(-c3ccccc3)cs2)CC1`, the z-score was -0.0847.

On to `O=C(NNS(=O)(=O)c1ccc2ccccc2c1)c1cccs1`, for which the z-score was -0.0652.

`O=C(NCC1(c2ccccc2)CCCC1)c1ccccc1Br`: the z-score is -1.2.

Regarding `COc1ccc(C(=O)N/N=C(\c2ccccc2)c2ccccn2)cc1`, the z-score is -0.109.

The compound `CCCOC(=O)c1ccc(NC(=O)C2CCCO2)cc1` (stereo unspecified) showed a z-score of 0.526.

In turn, `Cc1ccccc1-n1nc(C)c2cc(C(=O)N3CCOCC3)sc21` had a z-score of 0.691.

Compound `CCOC(=O)c1ccccc1N1C(=O)CSC1=S` yielded a z-score of -0.0781.

As to `Cn1c(=O)c2c(nc(N3CCOCC3)n2CCCNC2=NCCC2)n(C)c1=O`, the z-score is -0.611.

Compound `O=C(Nc1ccc(N2CCOCC2)c(C(=O)O)c1)c1ccco1` showed a z-score of -0.242.

In turn, `COc1ccc(C(=O)Nc2cc(C(F)(F)F)ccc2-n2cncn2)cc1` gave a z-score of -1.48.

In turn, `O=C(Cn1cc([N+](=O)[O-])cn1)Nc1ccc(Cn2cc(Br)cn2)cc1` returned a z-score of -0.16.

For `Oc1ccc(/C=N/Nc2nccnc2Cl)c(O)c1`, the z-score was -0.352.

For `CCOC(=O)C1=C(C)Nc2ncnn2C1/C=C/c1ccccc1` (stereo unspecified), the z-score is -0.259.

`Cc1ccc(N2C(=O)CSC23C(=O)Nc2ccccc23)cc1` (stereo unspecified) yielded a z-score of -0.314.

The compound `COC(=O)c1cc(C(=O)OC)cc(N2C(=O)CC(NNC(=O)c3ccccc3Br)C2=O)c1` (stereo unspecified) displayed a z-score of -0.097.

The compound `N#Cc1nc(COc2ccc(Br)cc2)oc1NCCN1CCOCC1` returned a z-score of -0.364.

`COC(=O)c1cc2occc2n1Cc1ccc(Cl)cc1`: the z-score worked out at 0.19.

In the case of `COc1ccc(NCc2cc3ccccc3[nH]c2=O)cc1`, the z-score was -0.457.

Compound `O=C(Nc1ccccc1)c1ccsc1` yielded a z-score of -0.247.

On to `Cc1csc(NC(=O)Cc2coc3cc(C)c(C(C)C)cc23)n1`, for which the z-score amounted to 0.437.

`CSCCC(Nc1ncnc2ccc(Br)cc12)C(=O)O` (stereo unspecified) came in with a z-score of 1.43.

Turning to `O=C(NC(CO)(CO)CO)c1coc(=O)c(Br)c1`, the z-score turned out to be 0.253.

Take `O=C(/C=C/c1ccc(OCc2ccccc2)c(OCc2ccccc2)c1)c1cccnc1`: the z-score turned out to be 0.691.

Turning to `COC(=O)c1cc(NC(=O)C2CC2)cc(C(=O)OC)c1`, the z-score worked out at 0.0071.

`COc1ccc2oc(=N)c(C(=O)Nc3ccccc3)cc2c1` came in with a z-score of -0.165.

`CN1CCCN(CC(O)COCc2cccs2)CC1` (stereo unspecified) came in with a z-score of 0.644.

With `Cc1ccccc1C(=O)Nc1nnc(-c2ccc(C(C)(C)C)cc2)s1`, the z-score was -0.00498.

For `O=C(NCc1ccc2c(c1)OCO2)c1ccc(N2CCCC2=O)cc1`, the z-score was -0.129.

Regarding `CCOC(=O)CSC1=Nc2ccccc2C2=NC(CC(=O)NCc3ccc(OC)cc3)C(=O)N12` (stereo unspecified), the z-score is 0.556.

The compound `CC(C)(C)C1CCC(=NNS(=O)(=O)c2ccc(Br)cc2)CC1` (stereo unspecified) yielded a z-score of 0.0546.

As for `CCOc1ccc(Cl)cc1S(=O)(=O)n1nnc2ccccc21`, the z-score was -1.58.

For the compound `Cc1ccc(-c2c(C#N)c(N)n(-c3ccccc3)c(=O)c2C#N)cc1`, the z-score is -0.595.

Compound `Cc1ccc(NC(=O)C2CCN(S(=O)(=O)c3c(C)n[nH]c3C)CC2)nc1` showed a z-score of 0.0104.

In the case of `Cn1c(NC(=O)C2CCCC2)cc(=O)n(C)c1=O`, the z-score is 0.268.

The compound `O=C(O)CCc1ccc(-c2cccs2)n1NC(=O)c1ccc(O)cc1` gave a z-score of 0.204.

In turn, `Cc1nc(SCC(=O)Nc2c(C)n(C)n(-c3ccccc3)c2=O)nc(C)c1C` returned a z-score of -0.261.
